Hit rate of the full screen: of about 320,000 compounds, about 200 (0.062%) were called active. Inconclusive results, whose numbers are uncertain, are shown with a selection of clear calls. Calls follow the shape of the dose curve; as a rule, active = well fitted activation curve with a large enough effect; inconclusive = small, poorly fitted or top-dose-only effect; inactive = no such curve, though single readings can be large or run the other way. Potencies of inconclusive entries are left out as doubtful fits.
Experiment: qHTS assay for re-activators of p53 using a Luc reporter; also: nearly all actives have a fitted effect of over 45% in size
Conditions: H1299 p53-A138V BP100-luciferase reporter, luminescence, 24 h; series mostly up to 92.2 µM
Summary of the method: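 H1299 (p53-null), stable ts p53-A138V + BP100-Luc; 1000 cells/well, Opti-MEM/10% FBS; cpd 4 pt, 1:5; 24 h, 37 deg C, 5% CO2; detection reagent 10 min RT; luminescence.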
Potency is read from the fitted curve at half-maximal effect; tags tell the direction and shape of the fitted curve.

Question: For `CC1CCN(S(=O)(=O)c2ccc(NC(=O)Cc3ccc(S(=O)(=O)N4CCOCC4)s3)cc2)CC1`, which Potency is on record?
Answer: inactive

Question: With `Oc1ccc(Br)cc1-c1cc(-c2ccccc2)n[nH]1` as the compound, how does the Potency read?
Answer: inconclusive [activator, single point]

Question: For `O=C(Cc1ccc(F)cc1)c1ccc(O)cc1O`, which Potency is on record?
Answer: inconclusive [activator, single point]

Question: Which Potency does the source give for `COc1cccc(C=Nc2cccc3c(=O)[nH][nH]c(=O)c23)c1O` here?
Answer: inactive

Question: Which Potency does the source give for `CC1CCC(C(C)C)C(=O)/C1=C/c1ccc(N)cc1` (stereo unspecified) here?
Answer: inconclusive [activator, partial curve, poor fit]

Question: Which Potency does the source give for `COc1cccc(NCc2nnc(SCC(=O)N(C)C3CCS(=O)(=O)C3)n2C2CCCCC2)c1` (stereo unspecified) here?
Answer: inconclusive [activator, single point]

Question: For `COc1ccc(C2=NOC(Cn3nc(C(=O)NCc4ccc(C)cc4)cc3-c3ccccc3)C2)cc1` (stereo unspecified), which Potency is on record?
Answer: inactive

Question: For `O=[N+]([O-])c1cccc(S(=O)(=O)NCCc2ccccc2)c1`, which Potency is on record?
Answer: inconclusive [activator, partial curve, poor fit]

Question: With `CCCCn1c(SCC(=O)NNC(=O)c2ccccc2)n[nH]c1=O` as the compound, how does the Potency read?
Answer: inactive

Question: For `CCOC(=O)c1cccc(-c2ccc(C=O)o2)c1`, which Potency is on record?
Answer: inconclusive [activator, partial curve, poor fit]

Question: Which Potency does the source give for `O=C(NCCc1ccc(F)cc1)c1cccs1` here?
Answer: inconclusive [activator, partial curve, poor fit]

Question: Which Potency does the source give for `NC(=O)c1cc(Cc2ccccc2)sc1NC(=O)c1ccco1` here?
Answer: inconclusive [activator, partial curve, poor fit]

Question: For `O=C(Nc1nc2cc3c(cc2s1)OCCO3)c1ccncc1`, which Potency is on record?
Answer: inactive

Question: For `Cc1cc(C)n2nc(-c3ccc(Cl)cc3)cc2n1`, which Potency is on record?
Answer: inconclusive [activator, partial curve, poor fit]

Question: For `COc1ccc(-c2cc3ccccc3s2)cc1[C@H]1[C@H]2C=CC[C@@H](C)[C@@H]2C(=O)N1Cc1ccccc1`, which Potency is on record?
Answer: inconclusive [activator, full curve, poor fit]

Question: With `Cc1ccc(NC2=C(NCCO)C(=O)c3ccccc3C2=O)cc1` as the compound, how does the Potency read?
Answer: inconclusive [activator, partial curve, poor fit]

Question: For `CCNC(=O)c1c(O)c2cccc3c2n(c1=O)CC3`, which Potency is on record?
Answer: inconclusive [activator, partial curve, poor fit]

Question: For `CSC(=S)N/N=C(\C)c1ccccc1`, which Potency is on record?
Answer: inactive

Question: With `COc1cccc(C(=O)NC(=S)Nc2ccc(N(C)C)cc2)c1` as the compound, how does the Potency read?
Answer: inconclusive [activator, partial curve, poor fit]

Question: For `O=C(/C=C/c1ccc(Cl)c(Cl)c1)N1CCc2ccccc21`, which Potency is on record?
Answer: inconclusive [activator, partial curve, poor fit]

Question: Which Potency does the source give for `CC(C)Oc1ccc(/C=N/NC(N)=S)cc1` here?
Answer: inconclusive [activator, partial curve, poor fit]

Question: For `CN(C)S(=O)(=O)c1cccc(NC(=O)Cc2ccc(-c3ccccc3)cc2)c1`, which Potency is on record?
Answer: inactive

Question: Which Potency does the source give for `O=C(CSc1ncnc2ccccc12)c1cccs1` here?
Answer: inconclusive [activator, full curve, poor fit]

Question: With `CCN(c1cccc(C)c1)S(=O)(=O)c1ccc2[nH]c(=O)c(=O)[nH]c2c1` as the compound, how does the Potency read?
Answer: inconclusive [activator, partial curve, poor fit]

Question: Which Potency does the source give for `O=[N+]([O-])c1ccc2cn(-c3ccccc3)nc2c1` here?
Answer: inconclusive [activator, partial curve, poor fit]

Question: Which Potency does the source give for `Cc1cnc(NC(=O)Nc2ccc(Cl)cc2)s1` here?
Answer: inconclusive [activator, partial curve, poor fit]

Question: For `COc1ccc(/C=C2/SC(=O)N(CCC(=O)Nc3ccc(S(=O)(=O)Nc4nccs4)cc3)C2=O)cc1`, which Potency is on record?
Answer: inconclusive [activator, full curve, poor fit]

Question: For `O=C(Cc1c(F)cccc1Cl)NNC(=S)Nc1ccc(S(=O)(=O)Nc2ncccn2)cc1`, which Potency is on record?
Answer: inconclusive [activator, single point]

Question: For `Nn1c(Nc2ccccc2)nc2ccccc21`, which Potency is on record?
Answer: inconclusive [activator, partial curve, poor fit]

Question: With `Cc1cc(/C=N/NC(=O)c2ccncc2)c(C)n1-c1ccccc1` as the compound, how does the Potency read?
Answer: inconclusive [activator, partial curve, poor fit]

Question: With `Fc1ccc(NC(=S)N2N=CCC2c2ccccc2)cc1` (stereo unspecified) as the compound, how does the Potency read?
Answer: inconclusive [activator, partial curve, poor fit]

Question: With `COC(=O)c1ccc2nc(NC(=O)C3CC3)sc2c1` as the compound, how does the Potency read?
Answer: inconclusive [activator, partial curve, poor fit]

Question: With `Cc1ccc2c(CN3CCN(S(=O)(=O)c4ccc(Cl)cc4)CC3)cc(=O)oc2c1C` as the compound, how does the Potency read?
Answer: inactive

Question: For `CN(c1ccc(Br)cc1)S(=O)(=O)c1ccc2[nH]cc(C(=O)NCCN3CCOCC3)c(=O)c2c1`, which Potency is on record?
Answer: inactive

Question: With `CCCNC(=O)COc1ccccc1[N+](=O)[O-]` as the compound, how does the Potency read?
Answer: inconclusive [activator, single point]

Question: With `Cc1ccc(-c2nnc(NC(=O)c3ccco3)s2)cc1` as the compound, how does the Potency read?
Answer: inconclusive [activator, partial curve, poor fit]

Question: Which Potency does the source give for `O=C(Cn1cc(SCc2ccccc2Cl)c2ccccc21)N1CCOCC1` here?
Answer: inconclusive [activator, partial curve, poor fit]

Question: With `COc1ccccc1NC(=O)/C=C/c1ccc2c(c1)OCO2` as the compound, how does the Potency read?
Answer: inconclusive [activator, partial curve, poor fit]

Question: With `O=C(Nc1ccc2oc(-c3ccc4ccccc4c3)nc2c1)c1cccs1` as the compound, how does the Potency read?
Answer: inconclusive [activator, partial curve]

Question: For `O=C1C=C(c2ccccc2)CCC1`, which Potency is on record?
Answer: inconclusive [activator, partial curve, poor fit]

Question: For `CCOc1ccc(C2C=C(c3ccccc3)Nc3nnnn32)cc1` (stereo unspecified), which Potency is on record?
Answer: inconclusive [activator, partial curve, poor fit]

Question: For `COc1ccc(NS(=O)(=O)c2cccc(C(=O)NCC(c3ccccc3)N(C)C)c2)cc1` (stereo unspecified), which Potency is on record?
Answer: inactive

Question: For `COc1ccc(C2CC(c3cccs3)=Nc3ccccc3S2)cc1OC` (stereo unspecified), which Potency is on record?
Answer: inconclusive [activator, single point]

Question: With `C/C(=N\NC(=O)COc1ccc(C(C)(C)C)cc1)c1ccc(-n2ccnc2)cc1` as the compound, how does the Potency read?
Answer: inconclusive [activator, partial curve, poor fit]

Question: Which Potency does the source give for `O/N=C/c1ccc(OCc2ccccc2F)c(Cl)c1` here?
Answer: inconclusive [activator, partial curve, poor fit]

Question: For `Cn1nccc1C(=O)Nc1nnc(C2CC2)s1`, which Potency is on record?
Answer: inconclusive [activator, single point]

Question: With `CCc1ccc(/C=C2\Oc3ccc(C(=O)OC)cc3C2=O)cc1` as the compound, how does the Potency read?
Answer: inactive

Question: With `O=C(/C=C/c1c(Cl)cccc1Cl)n1cccn1` as the compound, how does the Potency read?
Answer: inconclusive [activator, partial curve, poor fit]

Question: Which Potency does the source give for `O=C(Cc1ccccc1)NNC(=S)NC(=O)c1cccs1` here?
Answer: inactive

Question: For `CCNc1ccc(C(=O)O)cc1N`, which Potency is on record?
Answer: inconclusive [activator, full curve, poor fit]

Question: With `Cc1ccc(C)c(NC(=O)C(Sc2nnc(-c3cccs3)o2)c2ccccc2)c1` (stereo unspecified) as the compound, how does the Potency read?
Answer: inconclusive [activator, partial curve, poor fit]

Question: For `Cc1ccc(C(=O)CSc2nnc(C3CC3)n2C2CC2)s1`, which Potency is on record?
Answer: inconclusive [activator, full curve, poor fit]

Question: For `Clc1cccc2sc(N3CCCCC3)nc12`, which Potency is on record?
Answer: inconclusive [activator, partial curve, poor fit]

Question: For `O=C(CCCN1C(=O)c2cccc3cccc(c23)C1=O)N1CCc2ccccc2C1`, which Potency is on record?
Answer: inactive

Question: For `CCc1ccc(CNc2ccc3c(c2)ncn3C(C)(C)C)cc1`, which Potency is on record?
Answer: inconclusive [activator, full curve, poor fit]

Question: Which Potency does the source give for `Cc1cccc2sc(NC(=O)c3ccc(Cl)s3)nc12` here?
Answer: inconclusive [activator, partial curve, poor fit]

Question: Which Potency does the source give for `CCc1ccc(NC(=O)Nc2cnccn2)cc1` here?
Answer: inconclusive [activator, partial curve, poor fit]

Question: With `O=C1NC(=S)S/C1=C\c1ccc2ccccc2c1` as the compound, how does the Potency read?
Answer: inconclusive [activator, full curve, poor fit]

Question: Which Potency does the source give for `CC(=O)Nc1sc(C)c(C)c1C(=O)OCC(=O)Nc1ccccc1` here?
Answer: inconclusive [activator, full curve, poor fit]

Question: For `O=C(CCS(=O)(=O)c1ccc(Cl)cc1)NCCN1C(=O)S/C(=C\c2ccccc2F)C1=O`, which Potency is on record?
Answer: inconclusive [activator, partial curve, poor fit]

Question: With `COc1cc(NC(=O)N2CCNC2=O)cc(C(=O)Nc2cccc(C(F)(F)F)c2)c1` as the compound, how does the Potency read?
Answer: inactive

Question: For `Cc1cccc(NC(=O)c2cc(-c3cc(Cl)ccc3O)n[nH]2)c1`, which Potency is on record?
Answer: inconclusive [activator, partial curve, poor fit]

Question: For `O=S(=O)(NCCC1=CCCCC1)c1ccc(Br)cc1`, which Potency is on record?
Answer: inactive

Question: Which Potency does the source give for `O=C(COC(=O)c1ccccc1Nc1ccccc1)NCc1ccccc1` here?
Answer: inconclusive [activator, single point]

Question: Which Potency does the source give for `Cc1ccc(-c2ccccc2)n1-c1ccc(C(=O)O)cc1` here?
Answer: inconclusive [activator, single point]

Question: Which Potency does the source give for `Cc1ccc(N=c2c([N+](=O)[O-])nn(-c3ccccc3)n2O)c(C)c1` here?
Answer: inconclusive [activator, partial curve, poor fit]
